For 54 molecules, TGI and GI50 results are on record in PubChem BioAssay (NCI).

This assay has as its system NCI-H322M lung. Kind of assay: DTP human tumour cell line panel, 48 h.

Each structure is given as a SMILES string. Values joined by “and” are separate entries in the source; they are usually repeats but may differ in a detail not shown here. Equal values may be shown once.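 Cells were grown in 96-well plates and exposed to each compound for 48 hours at five concentrations; endpoints were interpolated linearly between bracketing concentrations, or set to the highest concentration if not reached. GI50 is the concentration that inhibits growth by half. Definition used: TGI = concentration required for complete inhibition of growth.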

`CCN1C/C(=C\c2cc(OC)c(OC)c(OC)c2)C2=NN(c3ccccc3)C(c3cc(OC)c(OC)c(OC)c3)C2C1` (configuration not stated): the concentration for total growth inhibition (TGI) is 23.8 µM.

`C=C1C(=O)OC2C1CC[C@H](C)C1(O)C(O)CC(=O)[C@@]21C` (some centres not stated) displayed a total growth inhibition concentration (TGI) of 96.8 µM.

As to `CC(=O)OCC1OC(OC2=C(CC=C(C)C)C(=O)c3ccccc3C2=O)C(OC(C)=O)C(OC(C)=O)C1OC(C)=O` (configuration not stated), the GI50 is 11.6 µM and the concentration for total growth inhibition (TGI) was determined as 24.5 µM.

Turning to `COc1cc(Nc2cc(C)nc(N3CCN(c4ccnc5cc(Cl)ccc45)CC3)n2)cc(OC)c1`, the GI50 was 0.141 µM and the total growth inhibition concentration (TGI) is > 100 µM.

With `Cc1cc(OCc2n[nH]c(=S)n2/N=C/c2ccc(F)cc2)ccc1Cl`, the GI50 is 16.8 µM and the TGI came to 59.9 µM.

Turning to `Nc1ncnc2oc(-c3cccs3)nc12`, the TGI is > 100 µM.

Turning to `COC1C(CO)OC(n2c3ccccc3c3c4c(c5c6ccccc6[nH]c5c32)C(=O)NC4=O)C(OC(=O)C(N)CCCCN)C1O` (configuration not stated), the 50% growth inhibitory concentration (GI50) is 0.0493 µM and the concentration for total growth inhibition (TGI) came to 0.593 µM.

Regarding `COc1ccc(C(OCC2OC(n3cnc4c(=O)n(Cc5ccccc5[N+](=O)[O-])nnc43)C(O)C2O)(c2ccccc2)c2ccc(OC)cc2)cc1` (configuration not stated), the TGI was > 79.9 µM.

On to `Nc1nc(N)nc(-c2ccccc2NS(=O)(=O)c2ccc([N+](=O)[O-])cc2)n1`, for which the concentration for total growth inhibition (TGI) is > 100 µM.

As to `COc1cc2c(cc1O)N=C[C@@H]1C[C@@H](F)CN1C2=O`, the GI50 is 0.976 µM and the total growth inhibition concentration (TGI) was found to be 4.24 µM.

On to `COc1ccc2c(c1)CC1Cc3cc(OC)c(OC)cc3CN1CC2` (configuration not stated), for which the TGI is > 100 µM.

As to `O=C(C(=NC12CC3CC(CC(C3)C1)C2)NNc1ccc([N+](=O)[O-])cc1[N+](=O)[O-])C(Br)C(=O)c1ccccc1` (configuration not stated), the total growth inhibition concentration (TGI) was > 10 µM.

`O=C(Nc1cccc(C(F)(F)F)c1)C(=O)C(C(=O)c1ccc2ccccc2c1)C1OC(=O)c2ccccc21` (configuration not stated) came in with a TGI of 26.7 µM.

Take `O=S(=O)(O)c1ccc(N=Nc2ccc(N=Nc3c(O)ccc4cc(S(=O)(=O)O)ccc34)cc2)cc1`: the total growth inhibition concentration (TGI) was > 100 µM.

Regarding `CC1(C)CC(=O)C(Cc2ccccc2)(Cc2ccccc2)C(=O)C1`, the concentration for total growth inhibition (TGI) was > 100 µM.

For the molecule `CC(NC(=O)C(C)C(=O)Nc1ccc(C(F)(F)F)cc1)C(N)=O` (configuration not stated), the TGI is > 100 µM.

`COc1cc(OC)cc(Oc2nc3cc(N)cc(N)c3nc2-c2ccccc2)c1`: the GI50 is 2.26 µM and the concentration for total growth inhibition (TGI) is 15.1 µM.

For the molecule `CC1(C)CCC(S(=O)(=O)c2ccc3c(c2)/C(=N\O)c2cc(S(=O)(=O)N4CCN(c5ccc(F)cc5O)CC4)ccc2-3)CC1`, the GI50 was 0.235 µM and the TGI was 0.603 µM.

Turning to `C=C(C)/C=C/C(O)[C@](C)(O)[C@H]1[C@H](O)C[C@@]2(C)[C@@H]3CCc4c(cc(OC5OC(CO)C(O)C(O)C5O)c(O)c4C)C3(C)C(=O)C[C@]12C` (some centres not stated), the TGI was > 100 µM.

For the molecule `Nc1ccc2c(c1)Cc1cc(Cl)c(Cl)cc1-2`, the GI50 was 4.14 µM and the TGI is > 100 µM.

For `C=C(Br)CN(C)CC(=C)Br`, the TGI is > 100 µM.

In the case of `O=C1C[C@H](Sc2ccccc2)C2(OCCO2)[C@H]2ON3CCC[C@@H]3[C@@H]12`, the concentration for total growth inhibition (TGI) stood at 20.1 µM.

For `Cc1ccc(N(C)S(=O)(=O)c2ccc([N+](=O)[O-])cc2)cc1`, the concentration for total growth inhibition (TGI) was > 100 µM.

As to `c1cc(N2CCCC2)c2nc(-c3[nH]ncc3Nc3ncnc4[nH]ccc34)[nH]c2c1`, the GI50 was 0.0743 µM and the TGI turned out to be 0.529 µM.

For the molecule `CCc1cccc(C(C)C)c1NC(=O)C(=O)C1C(=O)NC(=O)NC1=O`, the TGI is > 100 µM.

Take `CC(=O)Nc1ccc(-c2csc(Nc3ccc(-c4csc(-c5ccccc5)n4)cc3)n2)cc1`: the GI50 is 2.16 µM and the TGI was determined as 18.3 µM.

In the case of `Cc1c(NC(=O)c2cc(C(N)=O)nc3cc(F)ccc23)c(C(F)(F)F)nn1Cc1ccc(C#N)cc1`, the GI50 was 3.48 µM and the TGI was determined as 31.2 µM.

In the case of `CCNC(=O)CCC(C)[C@H]1CCC2C3C(C[C@H](OC(C)=O)[C@@]21C)[C@@]1(C)CCC2(C[C@H]1C[C@H]3OC(C)=O)OOC1(CCC(C)CC1)OO2` (some centres not stated), the GI50 was 9 µM and 4.25 µM; the total growth inhibition concentration (TGI) is > 100 µM and 71.2 µM.

Regarding `C=CCNC(=O)/C=C\C(=O)O`, the total growth inhibition concentration (TGI) was > 100 µM.

As for `Cc1ccnc(NS(=O)(=O)c2ccc(NC3=CC(=O)C(=O)c4ccccc43)cc2)n1`, the concentration for total growth inhibition (TGI) was > 100 µM.

Consider `C/C(=N\N(C)C)C(CN1CCCCC1)C(c1ccccc1)c1c(O)c2ccccc2oc1=O` (configuration not stated), for which the TGI is > 100 µM.

Turning to `CCCCC/C=C\C=C1\C(=O)C=C[C@@H]1C/C=C\CCCC(=O)O`, the total growth inhibition concentration (TGI) amounted to 14.6 µM.

`O=c1c(O)c(O)c1=O.[NH2-].[NH2-].[NH2-].[NH2-].[NH2-].[Ru+5]`: the GI50 is > 100 µM and the TGI is > 100 µM.

For the molecule `O=C(O)c1ccccc1C1CCCc2c1[nH]c1ccccc21` (configuration not stated), the concentration for total growth inhibition (TGI) is > 100 µM.

For `OC(Cc1cccnc1)(c1ccccc1)c1ccccc1`, the TGI is > 100 µM.

Turning to `C[C@]12CC(c3ccccc3O1)C(C(N)=O)C(=O)N2` (some centres not stated), the TGI is > 100 µM.

On to `CC(=O)Oc1ccc2c(c1OC(C)=O)CCC1C2=CC[C@]2(C)C(=O)CCC12` (some centres not stated), for which the TGI came to 85.8 µM.

In the case of `CCC[CH2][Sn]([CH2]CCC)([O]C(=O)Cc1ccc(F)cc1)[O]C(=O)Cc1ccc(F)cc1`, the GI50 is 1.61 µM and the TGI was found to be 3.25 µM.

For `CCOC(=O)N1C=NC23C(c4ccccc4)C(c4ccccc4)C12C(=O)N(C)C(=O)N3C` (configuration not stated), the TGI is > 100 µM.

In the case of `CC1=C(C(=O)CC(=O)C(=O)Nc2cccc(Cl)c2C)Sc2ccccc2N1`, the TGI is > 100 µM.

In the case of `Cc1cc(C)c(CNC(=O)c2cc(-c3ccc(CN4CCOCC4)cc3)cc3c2cnn3C2CCCC2)c(=O)[nH]1`, the GI50 is 19.5 µM and the TGI was determined as 52.3 µM.

Turning to `COC1(OC)C[C@H](C)[C@@]23O[C@]24C2=CC(=O)C=CC2=N[C@H]3C#C/C=C\C#C[C@]14O`, the TGI was found to be 2.44 µM.

As to `O=c1[nH]c(=O)n(C2OC(CO)C(N(O)Cc3ccc(F)cc3)C2O)cc1Br` (configuration not stated), the TGI is > 100 µM.

Turning to `O=C1CNc2cc(N3CCN(c4ccccc4)CC3)ccc2N1`, the total growth inhibition concentration (TGI) is > 100 µM.

As to `CC/C(CC(=O)CCC(=O)Nc1c(C)cccc1C)=N\NC(=O)NN`, the TGI was > 100 µM.

As for `CC(C)(C)c1ccc(O)c(C[N+](C)(C)C)c1`, the TGI was > 100 µM.

As to `COc1ccccc1N=Nc1c(-c2ccccc2)nn(C(=O)CC(=O)Nc2ccccc2Cl)c1-c1ccccc1`, the TGI was > 100 µM.

As to `O=C([O-])c1ccc2c(c1)-c1nc-2nc2[n-]c(nc3nc(nc4[n-]c(n1)c1ccc(C(=O)[O-])cc41)-c1ccc(C(=O)[O-])cc1-3)c1ccc(C(=O)[O-])cc21.[Gd+3].[K+]`, the GI50 is > 100 µM and the TGI is > 100 µM.

For the molecule `O=P(O)(OP(=O)(O)c1ccccc1)c1ccccc1` (tested in a mixture with another compound), the total growth inhibition concentration (TGI) is > 100 µM.

Regarding `COc1ccc2c(c1OC)CN1CCc3cc4c(cc3C1C2)OCO4` (configuration not stated), the concentration for total growth inhibition (TGI) is > 100 µM.

With `O=[N+]([O-])c1ccc(N=Nc2c(O)ccc3cc(S(=O)(=O)O)cc(S(=O)(=O)O)c23)cc1`, the TGI is > 100 µM.

For `O=C(O)c1ccccc1SCc1cccc2c(=O)c3ccc(Cl)cc3oc12`, the TGI is > 50 µM.

Take `CC(C)=CC(=O)OCC(=O)O[C@@H]1C[C@]2(C(C)C)O[C@@]1(C)[C@@H]1CC[C@@H](C)[C@H]1[C@@H]2OC(=O)/C=C/c1ccccc1`: the GI50 is > 64.6 µM and the total growth inhibition concentration (TGI) is > 100 µM.

`O=c1c2cc(I)ccc2nc(-c2cccs2)n1-c1ccc(S(=O)(=O)Nc2nccs2)cc1`: the GI50 was > 100 µM and the TGI is > 100 µM.

A word on the TGI: it is the concentration giving total growth inhibition. By GI50 is commonly meant the concentration giving 50% growth inhibition.
